Assay results from the RNAGym collection of RNA variant scans (doi:10.1101/gad.245936.114).
Variants at the floor of the assay are shown more often than the library holds them.

B1: tRNA (parent)
chain: CUCUCGGUAGCCAAGUUGGUUUAAGGCGCAAGACUUUAAUUUAUCACUACGAAAUCUUGAGAUCGGGCGUUCGACUCGCCCCCGGGAGAUUUUUUCCUCGAGCAA

Variants of: B1
Assay: nonsense suppression (GFP-seq) (ratio to wild type); higher = more function; SUP4oc tRNA, yeast GFP reporter sort-seq
Method in brief: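 Raffinose/galactose medium with 80 mg/L adenine was used to grow yeast carrying genome-integrated tRNA variants (~3% random-mutation library), RFP, and a galactose-driven GFP ochre reporter. Cells went into GFP/RFP bins, which were Illumina-sequenced, and variants with ≥100 reads and ≥30 cells were scored. Nonsense suppression (GFPSEQ) is the per-bin median GFP/RFP weighted by estimated cell share and expressed relative to the unmutated parent tRNA.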

Nonsense suppression, ≤ 0.026:
CUCUGGGUAGCCAAGUUGCUUUAAGGCCCAAGACUUUAAUUUAUCACUACGAAAUCUUGAGAUCGGGCGUUCGACUCGCCCCCGGGACAUUUUUUCCUCGAGCAA [C5G G19C G28C G88C]
CUCUGGGUAGCCAAGUUGUUUUAAGACGCAAGGCUUUAAUUUAUCACUACGAAAUCUUGAGAUCGGGCGUUCGACGCGCCCCCGGGAGAUUUUUUCCUCGAGCAA [C5G G19U G26A A33G U76G]
CUCUGGGUAGCCAAGUUGUUUUAAGGCGCAAGACUUUAAUUUAUCACUACGAAAUCUUGAGAGCGCGCGUUCGACUCGCCCCCGGGAGAUUUUUUCCUCGAGCAA [C5G G19U U63G G66C]
CUCUGGGUAGCCAAGUUGGUUUAAAGCGCAAGACUUUAAUUUAUCACUACGAAAUCUUGAGAUCGGGCGUUCGACUCGCCCCCGGGAGGUUUUUUCCUCGAGCAA [C5G G25A A89G]
CUCUGGGUAGCCAAGUUGGUUUAACUCGCAAGACUUUAAUUUAUCACUACGAAAUCUUGAGUUCGAGCGUUCGACUCGCCCCCGGGAGAUUUUUUCCUCGAGCAA [C5G G25C G26U A62U G66A]
CUCUGGGUAGCCAAGUUGGUUUAAUGCGCGAGACUUUAAUUUAUCACUACGAAAUCUUGAGAUCGGGCGUUCGACUCGCCCCCGGGAGAUUUUUUCCUCGAGCAA [C5G G25U A30G]
CUCUGGGUAGCCAAGUUGGUUUAAUGCGCAGGGCUUUAAUUUAUCACUACGAAAUCUUGAGAUCGGGCGUUCCACUCGCCCCCGGGAGAUUUUUUCCUCGAGCAA [C5G G25U A31G A33G G73C]
CUCUGGGUAGCCAAGUUGGUUUAAGGCCCAAGACUUUAAUUUAUCACUACGAAAUCUUGAGAUCGGGCGUUCGACUCGCCCCCGGGACAUUUUUUCCUCGAGCAA [C5G G28C G88C]
CUCUGGGUAGCCAAGUUGGUUUAAGGCUCAGGACUUUAAUUUAUCACUACGAAAUCUUGAGAUCGGGCGUUCGACUCGCCCCCGGGAGAUUUUUUCCUCGAGCAA [C5G G28U A31G]
CUCUGGGUAGCCAAGUUGGUUUAAGGCGCAAAGCUUUAAUUUAUCACUACGAAAUCUUGAGAUCGGGCGUUCGACUCGCCCCCGGGAGAUUUUUUCCUCGAGCAA [C5G G32A A33G]
CUCUGGGUAGCCAAGUUGGUUUAAGGCGCAACACUUUAAUUUAUCACUACGAAAUCUUGAGAUCGGGCGUUCGACUCGCCCCCGGGAGAUUUUUUCCUCGAGCAA [C5G G32C]
CUCUGGGUAGCCAAGUUGGUUUAAGGCGCAAUACUUUAAUUUAUCACUACGAAAUCUUGAGAUCGGGCGUUCGACUCGCCCCCGGGAGAUUUUUUCCUCGAGCAA [C5G G32U]
CUCUGGGUAGCCAAGUUGGUUUAAGGCGCAAUACUUUAAUUUAUCACUACGAAAUCUUGAGGUCGGGCGUUCGACUCGCCCCCGGGAGAUUUUUUCCUCGAGCAA [C5G G32U A62G]
CUCUGGGUAGCCAAGUUGGUUUAAGGCGCAAGACUUUAAUUUAUCACUACGAAAUCUUAAGAUCGGGCGUUCGACUCGCCGCCGGGAGAUUUUUUCCUCGAGCAA [C5G G59A C81G]
CUCUGGGUAGCCAAGUUGGUUUAAGGCGCAAGACUUUAAUUUAUCACUACGAAAUCUUUAGAUCGGGCGCUCGACUCGUCCCCGGGAGAUUUUUUCCUCGAGCAA [C5G G59U U70C C79U]
CUCUGGGUAGCCAAGUUGGUUUAAGGCGCAAGACUUUAAUUUAUCACUACGAAAUCUUGACAUCGGGCGCUCGACUCGCCCCCGGGAGAUUUUUUCCUCGAGCAA [C5G G61C U70C]
CUCUGGGUAGCCAAGUUGGUUUAAGGCGCAAGACUUUAAUUUAUCACUACGAAAUCUUGAUAUCGGGCGCUCUACUUGCCCCCGGGAGAUUUUUUCCUCGAGCAA [C5G G61U U70C G73U C77U]
CUCUGGGUAGCCAAGUUGGUUUAAGGCGCAAGACUUUAAUUUAUCACUACGAAAUCUUGAGAUCGGUCGUUCGACUCGCCGCCGGGAGAUUUUUUCCUCGAGCAA [C5G G67U C81G]
CUCUGGGUAGCCAAGUUGGUUUAAGGCGCAAGACUUUAAUUUAUCACUACGAAAUCUUGAGAUCGGGCGUUCUACUCGCCCCCGGAAGAUUUUUUCCUCGAGCAA [C5G G73U G86A]
CUCUGGGUAGCCAAGUUGGUUUAAGGCGCAAGACUUUAAUUUAUCACUACGAAAUCUUGAGAUCGGGCGUUCUACACCCCCCCGGGAGAUUUUUUCCUCGAGCAA [C5G G73U U76A G78C]
CUCUGGGAAGGCAAGUUGGUUUAAGGCGCAAGACUUUAAUUUAUCACUACGAAACCUUGAGAUCGGGCGUUCGACUCGCCCCCGGGAGAUUUUUUCCUCGAGCAA [C5G U8A C11G U55C]
CUCUGGGCAGCCAAGUUGGUUUAAGGCGCAAGACUUUAAUUUAUCACUACGAAAUCUUGCGAUCCGGCGUUCGACUCGCCCCCGGGCGAUUUUUUCCUCGAGCAA [C5G U8C A60C G65C A87C]
CUCUGGGCAGCCAAGUUGCUUUAAGGCGCAAGACUUUAAUUUAUCACUACGAAAUCUUGAGAUCGAGCGUUCGACUCGCCCCCGGGAGAUUUUUUCCUCGAGCAA [C5G U8C G19C G66A]
CUCUGGGUAGCCAAGCUGGUUUAAGGAGCAAGACUUUAAUUUAUCACUACGAAAACUUGAGAUCGGGCGUUCGACUCGCCCCCGGGAGAUUUUUUCCUCGAGCAA [C5G U16C C27A U55A]
CUCUGGGUAGCCAAGGUGGUUUAAGGCGCAAGACUUUAAUUUAUCACUACGAAAUCUUGAGAUCGGGCGUUCGACUCGCCCCCGGGAGGUUUUUUCCUCGAGCAA [C5G U16G A89G]
CUCUGGGUAGCCAAGGUGGUUUAAGGCGCAAGACUUUAAUUUAUCACUACGAAAUCUUGAGAUCGGGCGUUCGACUCGCCCUCGGGAGAUUUUUUCCUCGAGCAA [C5G U16G C82U]
CUCUGGGUAGCCAAGGUGGUGUGAGGCGCAAGACUUUAAUUUAUCACUACGAAAUCUUGAGAUCGGGCGUUCGAAUCGCCCCCGGGAGAUUUUUUCCUCGAGCAA [C5G U16G U21G A23G C75A]
